# Source: the supplement of paper PMC8728848
# The list shows a part of the results.
# B1: BC2LB (Burholderia cenocepacia), B4EH85_BURCJ (protein)
# chain: MGSSHHHHHHSSGENLYFQGHMSQPFTHDDLYALLQLAGNDATAVQANGDQAVLDRMRQFMTAQLVEKLPQYDVFVDIATIPYSFDVGSWQNKVKTDAAGEVVACTVTWAGAPGVLPGAAAKFGVGAVVNYFSKATPH
# What was measured:
# Test in all cases: glycan array binding signal (z-score within array); higher = stronger binding
# Details in all cases: glycan notation: IUPAC condensed, linker removed
# [1] = biological target: Neu5Ac(a2-3)GalNAc
# Procedure, shortened: (§1)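 Glycan array data were curated from 3228 arrays in the Consortium for Functional Glycomics database and kept only where the protein sequence was available. Glycan names were converted to IUPAC-condensed notation, and columns mapping to the same glycan were averaged. The binding signal is a within-array Z-score, averaged across arrays of the same protein sequence at different concentrations or buffers and across linkers. Negative Z-scores can be read as non-binding.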
# [2] = biological target: Neu5Ac(a2-3)GalNAc(b1-4)GlcNAc
# Procedure, shortened: as §1
# [3] = biological target: Neu5Ac(a2-3)[GalNAc(b1-4)]Gal(b1-4)Glc
# Procedure, shortened: as §1
# [4] = biological target: Neu5Ac(a2-3)[GalNAc(b1-4)]Gal(b1-4)GlcNAc
# Procedure, shortened: as §1
# [5] = biological target: Neu5Ac(a2-3)[GalNAc(b1-4)]Gal(b1-4)GlcNAc(b1-3)GalNAc
# Procedure, shortened: as §1
# [6] = biological target: Neu5Ac(a2-3)[Neu5Ac(a2-6)]GalNAc
# Procedure, shortened: as §1
# [7] = biological target: Neu5Ac(a2-6)Gal
# Procedure, shortened: as §1
# [8] = biological target: Neu5Ac(a2-6)Gal(b1-3)GlcNAc(b1-3)[Gal(b1-4)GlcNAc(b1-6)]Gal(b1-4)Glc
# Procedure, shortened: as §1
# [9] = biological target: Neu5Ac(a2-6)Gal(b1-4)Glc
# Procedure, shortened: as §1
# [10] = biological target: Neu5Ac(a2-6)Gal(b1-4)GlcNAc
# Procedure, shortened: as §1
# [11] = biological target: Neu5Ac(a2-6)Gal(b1-4)GlcNAc(b1-2)Man
# Procedure, shortened: as §1
# [12] = biological target: Neu5Ac(a2-6)Gal(b1-4)GlcNAc(b1-2)Man(a1-3)Man(b1-4)GlcNAc(b1-4)GlcNAc
# Procedure, shortened: as §1
# [13] = biological target: Neu5Ac(a2-6)Gal(b1-4)GlcNAc(b1-2)Man(a1-3)[Gal(b1-4)GlcNAc(b1-2)Man(a1-6)]Man(b1-4)GlcNAc(b1-4)GlcNAc
# Procedure, shortened: as §1
# [14] = biological target: Neu5Ac(a2-6)Gal(b1-4)GlcNAc(b1-2)Man(a1-3)[GlcNAc(b1-2)Man(a1-6)]Man(b1-4)GlcNAc(b1-4)GlcNAc
# Procedure, shortened: as §1
# [15] = biological target: Neu5Ac(a2-6)Gal(b1-4)GlcNAc(b1-2)Man(a1-3)[GlcNAc(b1-4)][Neu5Ac(a2-6)Gal(b1-4)GlcNAc(b1-2)Man(a1-6)]Man(b1-4)GlcNAc(b1-4)GlcNAc
# Procedure, shortened: as §1
# [16] = biological target: Neu5Ac(a2-6)Gal(b1-4)GlcNAc(b1-2)Man(a1-3)[Man(a1-6)]Man(b1-4)GlcNAc(b1-4)GlcNAc
# Procedure, shortened: as §1
# [17] = biological target: Neu5Ac(a2-6)Gal(b1-4)GlcNAc(b1-2)Man(a1-3)[Neu5Ac(a2-3)Gal(b1-4)GlcNAc(b1-2)Man(a1-6)]Man(b1-4)GlcNAc(b1-4)GlcNAc
# Procedure, shortened: as §1
# [18] = biological target: Neu5Ac(a2-6)Gal(b1-4)GlcNAc(b1-2)Man(a1-3)[Neu5Ac(a2-6)Gal(b1-4)GlcNAc(b1-2)Man(a1-6)]Man(b1-4)GlcNAc(b1-4)GlcNAc
# Procedure, shortened: as §1
# [19] = biological target: Neu5Ac(a2-6)Gal(b1-4)GlcNAc(b1-2)Man(a1-3)[Neu5Ac(a2-6)Gal(b1-4)GlcNAc(b1-2)Man(a1-6)]Man(b1-4)GlcNAc(b1-4)[Fuc(a1-6)]GlcNAc
# Procedure, shortened: as §1
# [20] = biological target: Neu5Ac(a2-6)Gal(b1-4)GlcNAc(b1-2)Man(a1-6)Man(b1-4)GlcNAc(b1-4)GlcNAc
# Procedure, shortened: as §1
# [21] = biological target: Neu5Ac(a2-6)Gal(b1-4)GlcNAc(b1-2)Man(a1-6)[Gal(b1-4)GlcNAc(b1-2)Man(a1-3)]Man(b1-4)GlcNAc(b1-4)GlcNAc
# Procedure, shortened: as §1
# [22] = biological target: Neu5Ac(a2-6)Gal(b1-4)GlcNAc(b1-2)Man(a1-6)[GlcNAc(b1-2)Man(a1-3)]Man(b1-4)GlcNAc(b1-4)GlcNAc
# Procedure, shortened: as §1
# [23] = biological target: Neu5Ac(a2-6)Gal(b1-4)GlcNAc(b1-2)Man(a1-6)[Man(a1-3)]Man(b1-4)GlcNAc(b1-4)GlcNAc
# Procedure, shortened: as §1
# [24] = biological target: Neu5Ac(a2-6)Gal(b1-4)GlcNAc(b1-2)[Neu5Ac(a2-6)Gal(b1-4)GlcNAc(b1-4)]Man(a1-3)[GlcNAc(b1-4)][Neu5Ac(a2-6)Gal(b1-4)GlcNAc(b1-2)[Neu5Ac(a2-6)Gal(b1-4)GlcNAc(b1-6)]Man(a1-6)]Man(b1-4)GlcNAc(b1-4)GlcNAc
# Procedure, shortened: as §1
# [25] = biological target: Neu5Ac(a2-6)Gal(b1-4)GlcNAc(b1-2)[Neu5Ac(a2-6)Gal(b1-4)GlcNAc(b1-4)]Man(a1-3)[GlcNAc(b1-4)][Neu5Ac(a2-6)Gal(b1-4)GlcNAc(b1-4)Man(a1-6)]Man(b1-4)GlcNAc(b1-4)GlcNAc
# Procedure, shortened: as §1
# [26] = biological target: Neu5Ac(a2-6)Gal(b1-4)GlcNAc(b1-2)[Neu5Ac(a2-6)Gal(b1-4)GlcNAc(b1-6)]Man(a1-6)[Neu5Ac(a2-6)Gal(b1-4)GlcNAc(b1-2)Man(a1-3)][GlcNAc(b1-4)]Man(b1-4)GlcNAc(b1-4)GlcNAc
# Procedure, shortened: as §1
# [27] = biological target: Neu5Ac(a2-6)Gal(b1-4)GlcNAc(b1-3)Gal(b1-3)GlcNAc
# Procedure, shortened: as §1
# [28] = biological target: Neu5Ac(a2-6)Gal(b1-4)GlcNAc(b1-3)Gal(b1-4)GlcNAc
# Procedure, shortened: as §1
# [29] = biological target: Neu5Ac(a2-6)Gal(b1-4)GlcNAc(b1-3)Gal(b1-4)GlcNAc(b1-2)Man(a1-3)[Neu5Ac(a2-6)Gal(b1-4)GlcNAc(b1-3)Gal(b1-4)GlcNAc(b1-2)Man(a1-6)]GalNAc
# Procedure, shortened: as §1
# [30] = biological target: Neu5Ac(a2-6)Gal(b1-4)GlcNAc(b1-3)Gal(b1-4)GlcNAc(b1-3)Gal(b1-4)GlcNAc
# Procedure, shortened: as §1
# [31] = biological target: Neu5Ac(a2-6)Gal(b1-4)GlcNAc(b1-3)Gal(b1-4)GlcNAc(b1-3)Gal(b1-4)GlcNAc(b1-2)Man(a1-3)[Neu5Ac(a2-6)Gal(b1-4)GlcNAc(b1-3)Gal(b1-4)GlcNAc(b1-3)Gal(b1-4)GlcNAc(b1-2)Man(a1-6)]GalNAc
# Procedure, shortened: as §1
# [32] = biological target: Neu5Ac(a2-6)Gal(b1-4)GlcNAc(b1-3)Gal(b1-4)GlcNAc(b1-3)GalNAc
# Procedure, shortened: as §1
# [33] = biological target: Neu5Ac(a2-6)Gal(b1-4)GlcNAc(b1-3)Gal(b1-4)GlcNAc(b1-3)[Neu5Ac(a2-6)Gal(b1-4)GlcNAc(b1-3)Gal(b1-4)GlcNAc(b1-6)]GalNAc
# Procedure, shortened: as §1
# [34] = biological target: Neu5Ac(a2-6)Gal(b1-4)GlcNAc(b1-3)Gal(b1-4)GlcNAc(b1-6)[Gal(b1-3)]GalNAc
# Procedure, shortened: as §1
# [35] = biological target: Neu5Ac(a2-6)Gal(b1-4)GlcNAc(b1-3)Gal(b1-4)[Fuc(a1-3)]GlcNAc(b1-3)Gal(b1-4)[Fuc(a1-3)]GlcNAc
# Procedure, shortened: as §1
# [36] = biological target: Neu5Ac(a2-6)Gal(b1-4)GlcNAc(b1-3)GalNAc
# Procedure, shortened: as §1
# [37] = biological target: Neu5Ac(a2-6)Gal(b1-4)GlcNAc(b1-3)[Neu5Ac(a2-6)Gal(b1-4)GlcNAc(b1-6)]GalNAc
# Procedure, shortened: as §1
# [38] = biological target: Neu5Ac(a2-6)Gal(b1-4)GlcNAc(b1-6)GalNAc
# Procedure, shortened: as §1
binder,measurement,setting,value
B1,glycan array binding signal (z-score),[1],-0.242
same,glycan array binding signal (z-score),[2],-0.32
same,glycan array binding signal (z-score),[3],-0.304
same,glycan array binding signal (z-score),[4],-0.369
same,glycan array binding signal (z-score),[5],-0.22
same,glycan array binding signal (z-score),[6],-0.404
same,glycan array binding signal (z-score),[7],-0.172
same,glycan array binding signal (z-score),[8],-0.167
same,glycan array binding signal (z-score),[9],-0.209
same,glycan array binding signal (z-score),[10],-0.206
same,glycan array binding signal (z-score),[11],-0.171
same,glycan array binding signal (z-score),[12],-0.221
same,glycan array binding signal (z-score),[13],-0.315
same,glycan array binding signal (z-score),[14],-0.232
same,glycan array binding signal (z-score),[15],-0.196
same,glycan array binding signal (z-score),[16],-0.279
same,glycan array binding signal (z-score),[17],-0.317
same,glycan array binding signal (z-score),[18],-0.242
same,glycan array binding signal (z-score),[19],-0.147
same,glycan array binding signal (z-score),[20],-0.314
same,glycan array binding signal (z-score),[21],-0.256
same,glycan array binding signal (z-score),[22],-0.343
same,glycan array binding signal (z-score),[23],-0.235
same,glycan array binding signal (z-score),[24],-0.269
same,glycan array binding signal (z-score),[25],-0.057
same,glycan array binding signal (z-score),[26],-0.233
same,glycan array binding signal (z-score),[27],-0.263
same,glycan array binding signal (z-score),[28],-0.335
same,glycan array binding signal (z-score),[29],-0.05
same,glycan array binding signal (z-score),[30],-0.241
same,glycan array binding signal (z-score),[31],0.827
same,glycan array binding signal (z-score),[32],-0.241
same,glycan array binding signal (z-score),[33],-0.307
same,glycan array binding signal (z-score),[34],-0.227
same,glycan array binding signal (z-score),[35],-0.208
same,glycan array binding signal (z-score),[36],10.1
same,glycan array binding signal (z-score),[37],-0.141
same,glycan array binding signal (z-score),[38],-0.029
